# “And” between values parts separate entries of the source, which are not always exact repeats. Identical values can stand only once. Counter-ions that a name gives are not always drawn. Screen size: about 5,800 compounds; about 620 (11%) showed activity.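 How the source made its calls: active = score above a cut-off or among the top three wells of a plate; in these data no inactive exceeds 0.85.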 Only a part is listed here, and it is no random draw.
# System: primary human hepatic stellate cells (donor 1)
# Experiment: scaled lipid accumulation score (0 = DMSO-like, 1 = nortriptyline-like); higher = stronger HSC inactivation (lipid re-accumulation), active = hit call of the paper
# Conditions: 48 h
# [1] = library stock concentration: 1 mM
# [2] = library stock concentration: 10 mM
# [3] = library stock concentration: 80 uM
# [4] = library stock concentration: 400 uM
# [5] = library stock concentration: 2 mM
# [6] = library stock concentration: 3.33 mM
structure (smiles),measurement,setting,value
CCCCCCCCCCCCCCP(=O)(O)O [Tetradecyl Phosphonate],scaled lipid accumulation score,[1],inactive: ≤ 0
Fc1ccc(CN(C2=NCCN2)c2c(Cl)cccc2Cl)cc1 [IMID-4F hydrochloride],scaled lipid accumulation score,[2],inactive: 0.763
"COC(=O)CCC[C@H](O)[C@H](O)CO [5(S),6(R)-7-trihydroxymethyl Heptanoate]",scaled lipid accumulation score,[1],inactive: ≤ 0
CCc1cc2c(cc1N1CCC(N3CCOCC3)CC1)C(C)(C)c1[nH]c3cc(C#N)ccc3c1C2=O,scaled lipid accumulation score,[3],inactive: ≤ -0.016
same,scaled lipid accumulation score,[4],inactive: ≤ -0.016
same,scaled lipid accumulation score,[5],inactive: 0.126
CCCCCCCC/C=C\CCCCCCCCOC[C@H](COP(=O)([O-])OCC[N+](C)(C)C)OC(C)=O,scaled lipid accumulation score,[1],inactive: ≤ -0.018
CC[C@H]1C(=O)OC[C@@H]1Cc1cncn1C [Isopilocarpine nitrate],scaled lipid accumulation score,[2],inactive: ≤ 0
CCCCC[C@H](O)/C=C/[C@@H]1[C@H]2C/C(=C\CCCC(=O)O)C[C@H]2C[C@H]1O [5-cis Carbaprostacyclin],scaled lipid accumulation score,[1],inactive: ≤ 0
CCCCC/C=C\C/C=C\C/C=C\C=C\[C@@H](O)CCCC(=O)O,scaled lipid accumulation score,library stock concentration: 100 uM,inactive: ≤ -0.021
O=C(O)C(=O)O.[NH-][C@@H]1CCCC[C@H]1[NH-].[Pt+2] [Oxaliplatin],scaled lipid accumulation score,[6],inactive: ≤ 0
same,scaled lipid accumulation score,library stock concentration: 5 mM,inactive: 0.058
same,scaled lipid accumulation score,[2],inactive: ≤ 0 and inactive: ≤ -0.001
CSc1cc2c(cc1C(F)(F)F)N(C(=O)Nc1cccnc1)CC2,scaled lipid accumulation score,[2],inactive: ≤ -0.006
Cc1nn(-c2ccccc2)c(C)c1C=NN1CCN(Cc2ccccc2)CC1,scaled lipid accumulation score,[6],inactive: ≤ -0.008
same,scaled lipid accumulation score,[2],inactive: 0.11 and inactive: ≤ -0.006
Cc1ccc(NC(=O)c2ccc(CN3CCN(C)CC3)cc2)cc1Nc1nccc(-c2cccnc2)n1 [Imatinib],scaled lipid accumulation score,[3],inactive: ≤ 0
same,scaled lipid accumulation score,[4],inactive: ≤ 0
same,scaled lipid accumulation score,[5],inactive: 0.049
Cc1ccc(NC(=O)c2ccc(CN3CCN(C)CC3)cc2)cc1Nc1nccc(-c2cccnc2)n1 [Imatinib Mesylate (STI571)],scaled lipid accumulation score,[6],inactive: 0.259
Cc1ccc(NC(=O)c2ccc(CN3CCN(C)CC3)cc2)cc1Nc1nccc(-c2cccnc2)n1,scaled lipid accumulation score,[4],inactive: 0.022
same,scaled lipid accumulation score,[5],inactive: ≤ -0.005
same,scaled lipid accumulation score,[2],inactive: 0.628
Cc1ccc(NC(=O)c2ccc(CN3CCN(C)CC3)cc2)cc1Nc1nccc(-c2cccnc2)n1 [Imatinib (STI571)] [listing 1 of 2 here],scaled lipid accumulation score,[6],inactive: 0.133
Cc1cc2nc3c(=O)[nH]c(=O)nc-3n(C)c2cc1C=O,scaled lipid accumulation score,[2],inactive: ≤ -0.001
O=C(NCC1(c2nc(-c3ccccc3)cs2)CCOCC1)c1cccc(-c2noc(C(F)(F)F)n2)c1,scaled lipid accumulation score,[6],inactive: ≤ -0.009
same,scaled lipid accumulation score,[2],inactive: ≤ 0
CCOC(=O)COc1ccc2c(=O)cc(-c3ccccc3)oc2c1,scaled lipid accumulation score,[2],inactive: ≤ 0
Nc1ccc(C(=O)Nc2cccc(-c3nc(N4CCOCC4)c4oc5ncccc5c4n3)c2)cn1,scaled lipid accumulation score,[2],active: 0.995
CCCCCCCC/C=C\CCCCCCCC(=O)OC[C@H](CO)OC(C)=O [1-Oleoyl-2-acetyl-sn-glycerol],scaled lipid accumulation score,[1],inactive: 0.033
CCCCCCCC/C=C\CCCCCCCC(=O)OC[C@H](CO)OC(C)=O [1-Oleoyl 2-acetyl-glycerol],scaled lipid accumulation score,[1],inactive: ≤ -0.021
CNCc1ccc(-c2cc(-c3nc(-c4ccc(S(=O)(=O)C(C)C)cc4)cnc3N)on2)cc1,scaled lipid accumulation score,[6],active: 1.12
O=C1/C(=C/c2cccs2)CCC/C1=C\c1cccs1,scaled lipid accumulation score,[2],inactive: ≤ 0
N[C@@H](CSC(c1ccccc1)(c1ccccc1)c1ccccc1)C(=O)O [S-Trityl-L-cysteine],scaled lipid accumulation score,[2],inactive: 0.041
O=C(c1ccc(Nc2nccc(-c3cc4ccccc4s3)n2)cc1)N1CCC(N2CCCC2)CC1 [IKK Inhibitor VII],scaled lipid accumulation score,[6],active: 1.06
Cc1c(C(=O)NN2CCCCC2)nn(-c2ccc(Cl)cc2Cl)c1-c1ccc(Cl)cc1 [Rimonabant],scaled lipid accumulation score,[6],inactive: ≤ 0
same,scaled lipid accumulation score,[2],inactive: ≤ 0
COc1cc2c(cc1OC)CC(=O)N(CCCN(C)C[C@H]1Cc3cc(OC)c(OC)cc31)CC2 [Ivabradine HCl],scaled lipid accumulation score,[6],inactive: ≤ 0
same,scaled lipid accumulation score,[2],inactive: ≤ 0
C[C@H]1c2cccc(O)c2C(=O)C2=C(O)[C@]3(O)C(=O)C(C(N)=O)=C(O)[C@@H](N(C)C)[C@@H]3[C@@H](O)[C@@H]21 [Doxycycline HCl],scaled lipid accumulation score,[6],inactive: ≤ 0
same,scaled lipid accumulation score,library stock concentration: 4.5 mM,inactive: ≤ 0
same,scaled lipid accumulation score,[2],inactive: ≤ -0.001
C[C@H]1c2cccc(O)c2C(=O)C2=C(O)[C@]3(O)C(=O)C(C(N)=O)=C(O)[C@@H](N(C)C)[C@@H]3[C@@H](O)[C@@H]21,scaled lipid accumulation score,[2],inactive: ≤ 0
C[C@H]1c2cccc(O)c2C(=O)C2=C(O)[C@]3(O)C(=O)C(C(N)=O)=C(O)[C@@H](N(C)C)[C@@H]3[C@@H](O)[C@@H]21 [Doxycycline hyclate],scaled lipid accumulation score,,inactive: ≤ 0
C[C@H]1c2cccc(O)c2C(=O)C2=C(O)[C@]3(O)C(=O)C(C(N)=O)=C(O)[C@@H](N(C)C)[C@@H]3[C@@H](O)[C@@H]21 [Doxycycline hydrochloride],scaled lipid accumulation score,[2],inactive: ≤ 0
COc1cc(C(=O)N2CCC(N3CCN(C)CC3)CC2)ccc1Nc1ncc2c(n1)N(C)c1ccccc1C(=O)N2C [listing 1 of 2 here],scaled lipid accumulation score,[2],active: 0.929
COc1cc(C(=O)N2CCC(N3CCN(C)CC3)CC2)ccc1Nc1ncc2c(n1)N(C)c1ccccc1C(=O)N2C [listing 2 of 2 here],scaled lipid accumulation score,[3],inactive: ≤ 0
same,scaled lipid accumulation score,[4],inactive: 0.015
same,scaled lipid accumulation score,[5],inactive: 0.329
Clc1ccc(C(Cn2ccnc2)OCc2ccsc2Cl)c(Cl)c1 (stereo unspecified) [Tioconazole],scaled lipid accumulation score,[6],inactive: ≤ 0
same,scaled lipid accumulation score,library stock concentration: 5.2 mM,inactive: ≤ 0
same,scaled lipid accumulation score,[2],inactive: ≤ 0
O=c1[nH]nc(Sc2ncc([N+](=O)[O-])s2)n1-c1ccc2c(c1)OCCO2,scaled lipid accumulation score,[2],active: 1.25
O=C(O)CNC(=O)C(CS)Cc1ccccc1 (racemic) [DL-Thiorphan],scaled lipid accumulation score,[2],inactive: ≤ 0
CCCC1C(=O)N2C(N(C)C)=Nc3ccc(C)cc3N2C1=O (stereo unspecified) [Azapropazone],scaled lipid accumulation score,,inactive: ≤ 0
COC(=O)/C=C/c1cccc(N(Cc2ccc(-c3ccc(N(C)C)cc3)cc2)C(=O)C2CCCCC2)c1 [Fexaramine],scaled lipid accumulation score,[2],inactive: 0.006
Cc1ccc(NC(=O)c2ccc(CN3CCN(C)CC3)cc2)cc1Nc1nccc(-c2cccnc2)n1 [Imatinib (STI571)] [listing 2 of 2 here],scaled lipid accumulation score,[2],active: 0.92
"C[C@](N)(Cc1ccc(O)c(O)c1)C(=O)O [Methyldopa (L,-)]",scaled lipid accumulation score,,inactive: ≤ 0
C[C@](N)(Cc1ccc(O)c(O)c1)C(=O)O [L-alpha-Methyl DOPA],scaled lipid accumulation score,[2],inactive: ≤ -0.055
C[C@](N)(Cc1ccc(O)c(O)c1)C(=O)O [Methyldopa],scaled lipid accumulation score,library stock concentration: 9.5 mM,inactive: ≤ 0 and inactive: ≤ -0.001
same,scaled lipid accumulation score,[2],inactive: ≤ 0 and inactive: 0.076
c1cnc(N2CCN(Cc3ccc4c(c3)OCO4)CC2)nc1 [Piribedil HCl],scaled lipid accumulation score,library stock concentration: 6.7 mM,inactive: ≤ -0.006
c1cnc(N2CCN(Cc3ccc4c(c3)OCO4)CC2)nc1 [Piribedil],scaled lipid accumulation score,library stock concentration: 9.7 mM,inactive: ≤ 0
same,scaled lipid accumulation score,[2],inactive: ≤ -0.006
c1cnc(N2CCN(Cc3ccc4c(c3)OCO4)CC2)nc1 [Piribedil hydrochloride],scaled lipid accumulation score,,inactive: 0.013
c1cnc(N2CCN(Cc3ccc4c(c3)OCO4)CC2)nc1 [Piribedil maleate],scaled lipid accumulation score,[2],inactive: ≤ 0
COc1cc2c(c(OC)c1OC)-c1c(cc3c(c1OC)OCO3)CC(C)C(C)C2 (stereo unspecified) [Schisandrin B (Sch B)],scaled lipid accumulation score,[6],inactive: ≤ 0
same,scaled lipid accumulation score,[2],inactive: ≤ -0.001
Cl.Fc1ccc([C@@H]2CCNC[C@H]2COc2ccc3c(c2)OCO3)cc1 [Paroxetine HCl],scaled lipid accumulation score,[6],active: 0.491
CCOC(=O)c1cnc2ccc(-c3cncc(NS(=O)(=O)c4ccccc4)c3)cn12,scaled lipid accumulation score,[6],inactive: 0.492
CC(C)(OCc1nn(Cc2ccccc2)c2ccccc12)C(=O)O [Bindarit],scaled lipid accumulation score,[6],inactive: ≤ 0
same,scaled lipid accumulation score,[2],inactive: ≤ 0
Cc1ccc(S(=O)(=O)N[C@@H](Cc2ccccc2)C(=O)CCl)cc1 [Tosyl-Phe-CMK (TPCK)],scaled lipid accumulation score,library stock concentration: 14.2 mM,inactive: 0.746
Cc1ccc(S(=O)(=O)N[C@@H](Cc2ccccc2)C(=O)CCl)cc1 [N-p-Tosyl-L-phenylalanine chloromethyl ketone],scaled lipid accumulation score,[2],inactive: 0.794
CCCN1CCCC[C@H]1C(=O)Nc1c(C)cccc1C,scaled lipid accumulation score,library stock concentration: 9.9 mM,inactive: ≤ 0
CCCN1CCCC[C@H]1C(=O)Nc1c(C)cccc1C [Ropivacaine HCl],scaled lipid accumulation score,[6],inactive: ≤ 0
same,scaled lipid accumulation score,[2],inactive: ≤ 0
CCCCCC(O)C=CC1C(O)CC(O)C1CC=CCCCCOC (stereo not drawn) [Prostaglandin F2.alpha. Alcohol methyl ether],scaled lipid accumulation score,[1],inactive: ≤ 0
CCCCCCCCCCCCC/C=C/[C@@H](O)[C@H](CO)NCCCCCCCC [C-8 Ceramine],scaled lipid accumulation score,[1],inactive: 0.054
CCCCCCCCCCCCC/C=C/[C@@H](O)[C@H](CO)NCCCCCCCC [C8 Ceramine],scaled lipid accumulation score,[1],inactive: 0.067
Cc1cccc(-c2[nH]c(C(C)(C)C)nc2-c2ccc3c(c2)OCO3)n1,scaled lipid accumulation score,[6],inactive: 0.571
same,scaled lipid accumulation score,[2],inactive: ≤ 0
NC1CCN(c2cccc(Cl)n2)CC1,scaled lipid accumulation score,[2],inactive: 0.62 and inactive: 0.499
C[C@@H](N)c1ccc(C(=O)Nc2ccnc3[nH]ccc23)cc1.Cl.Cl,scaled lipid accumulation score,[2],active: 1.13
COc1cccc(CCc2ccccc2OCC[C@@H]2C[C@@H](O)CN2C)c1.Cl,scaled lipid accumulation score,[2],active: 1.18
CCN(C(=O)c1c(O)c2c(Cl)cccc2n(C)c1=O)c1ccccc1 [Laquinimod],scaled lipid accumulation score,[6],inactive: ≤ 0
same,scaled lipid accumulation score,[2],inactive: ≤ 0
Cl.N/C(=N\C(=O)c1nc(Cl)c(N)nc1N)NCc1ccccc1 [Benzamil hydrochloride],scaled lipid accumulation score,[2],active: 1.09
CN1CC(=O)N2[C@H](c3ccc4c(c3)OCO4)c3[nH]c4ccccc4c3C[C@@H]2C1=O [Tadalafil],scaled lipid accumulation score,[6],inactive: ≤ 0
same,scaled lipid accumulation score,[2],inactive: ≤ 0
CN1CC(=O)N2[C@H](c3ccc4c(c3)OCO4)c3[nH]c4ccccc4c3C[C@@H]2C1=O,scaled lipid accumulation score,[2],inactive: ≤ 0
